Data from patent publication US20240317847A1 (Bayer, published 2024).

Key:
human IL2Ra = biological target: T1, human IL2Ra (human, UniProt P01589 22-240, limits assumed); test: ELISA on coated IL2Ra, signal ratio to isotype control TPP-10159 at 3.3E-7 M antibody
T1 construct: coated on the ELISA plate; also called IL-2 receptor alpha
T1 sequence (looked up): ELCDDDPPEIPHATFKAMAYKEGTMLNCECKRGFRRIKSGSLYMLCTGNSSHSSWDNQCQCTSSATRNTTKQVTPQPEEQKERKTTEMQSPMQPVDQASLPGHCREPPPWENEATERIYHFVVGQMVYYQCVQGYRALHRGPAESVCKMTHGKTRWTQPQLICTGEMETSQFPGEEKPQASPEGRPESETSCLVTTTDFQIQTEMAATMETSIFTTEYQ
Description: IL2RA (Peprotech, Germany, #200-02RC) was coated at 1 or 0 μg/ml (buffer only control) in 30 μl coating buffer (Candor, #113500) per well on a 384 well microtiter plate (Maxisorb, Nunc, #460518) over night at 4-8° C. After two washes with 50 μl/well washing buffer (PBS+0.05% Tween, pH 7.4), the plates were incubated for two hours at room temperature with 50 μl/well SmartBlock (Candor, #113500). After blocking, the plates were washed three times with washing buffer. Then, a dilution series of the respective antibody (1E-7 [M] down to 2E-13 [M]) in PBS+0.05% Tween, 10% SmartBlock were added in 30 μl to the microtiter plate and incubated for 90 min at room temperature. After three additional washes, 30 μl anti mouse IgG HRP-conjugated antibody (Biotechne, HAF007), diluted 1:1000 in PBS+0.05% Tween (pH 7.4), were added per well and incubated for one hour. […] Relative fluorescence was measured with a microtiter plate reader at 535/590 nm.
IgG converted antibodies TPP-were tested for binding to IL2Ra as described in Example 20. The ratios of the signals obtained at an antibody concentration of 3.3E-7 [M] for IgG converted antibody versus the isotype control TPP-10159 were calculated and are shown in Table E22.

murine IL-11 = biological target: T2, murine IL-11 (mouse, UniProt P47873 22-199); test: Tri-complex ELISA, mIL-11 + mIL-11Ra-Fc + mgp130-Fc, inhibition of complex formation
T2 construct: Invigate recombinant protein; biotinylated when immobilized in the Di-complex ELISA; also called mIL11; mIL-11
T2 sequence: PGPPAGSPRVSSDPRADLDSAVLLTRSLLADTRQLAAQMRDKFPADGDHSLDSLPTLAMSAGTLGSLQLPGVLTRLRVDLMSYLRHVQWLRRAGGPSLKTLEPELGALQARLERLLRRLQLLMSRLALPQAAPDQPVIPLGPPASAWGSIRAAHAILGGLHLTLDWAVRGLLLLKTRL
Description: In a first step, 25 μl of goat anti human IgG (Sigma, #12136), diluted 1:1000 in coating buffer (Candor, #121125) was coated on the plate at 4° C. overnight. Next day, the plate was washed one time with 50 μl PBST and then blocked with 50 μl SmartBlock (Candor, #113125) for one hour at room temperature (RT). […] After three additional washes of the coated and blocked microtiter plate with PBS-T, 25 μl of each mixture were added and the assay plate was incubated for one hour at room temperature. After three additional washes, anti-mouse-gp130 biotinylated antibody (R&D, #BAF468) or anti-human gp130 biotinylated antibody (R&D, #BAF228), both 1:1000 in 10% SmartBlock PBS-T, was added and incubated for 1 hour at RT. After three additional washes, a Streptavidin-Peroxidase conjugate (Sigma, #S5512) 1:1000 in SmartBlock PBS-T was added and incubated for one hour at room temperature. After a final three washes, AmplexRed (Fisher Scientific, A12222), 1/1000 in PBS, 0,003% H₂O₂, was added as substrate and incubated for 15 min at RT in the dark. Then, the fluorescence was measured with a plate reader at 535/595 nm. Signals from dose responses were used to calculate IC50 values using GraphPad Prism software. Efficacy was calculated as [(signal measured at lowest antibody concentration−signal measured at the highest antibody concentration)×100] divided by (signal measured at lowest antibody concentration−signal measured in the absence of antibody at an IL11 concentration of 8.2E-11 [M]).
IgG converted antibodies were subjected to the experimental assay procedure described in Example 19 and IC50 [M], respectively efficacy (%) were calculated accordingly.

B1: TPP-29536 (antibody, human IgG1, lambda)
heavy: EVQLLESGGGLVQPGGSLRLSCAASGFTFSSYGMHWVRQAPGKGLEWVAVISYDGSYKYYADSVKGRFTISRDNSKNTLYLQMNSLRAEDTAVYYCAAGVPDYWGQGTLVTVSSASTKGPSVFPLAPSSKSTSGGTAALGCLVKDYFPEPVTVSWNSGALTSGVHTFPAVLQSSGLYSLSSVVTVPSSSLGTQTYICNVNHKPSNTKVDKKVEPKSCDKTHTCPPCPAPPVAGPSVFLFPPKPKDTLMISRTPEVTCVVVGVSHEDPEVKFNWYVDGVEVHNAKTKPREEQYNSTYRVVSVLTVLHQDWLNGKEYKCKVSNKQLPSPIEKTISKAKGQPREPQVYTLPPSRDELTKNQVSLTCLVKGFYPSDIAVEWESNGQPENNYKTTPPVLDSDGSFFLYSKLTVDKSRWQQGNVFSCSVMHEALHNHYTQKSLSLSPGK
light: QSVLTQPPSASGTPGQRVTISCSGSSSNIGSDYDVHWYQQLPGTAPKLLIYSNEERPSGVPDRFSGSKSGTSASLAISGLRSEDEADYYCSAWDSSLSGPVFGGGTKLTVLGQPKAAPSVTLFPPSSEELQANKATLVCLISDFYPGAVTVAWKADSSPVKAGVETTTPSKQSNNKYAASSYLSLTPEQWKSHRSYSCQVTHEGSTVEKTVAPTECS
notes: hIgG-lambda-HS (human IgG1 with Fc-silencing mutations)
Antibody/Isotype Control Ratio of IL-2Ra Binding Signals (human IL2Ra): 1.1 ratio | Efficacy (%) (murine IL-11): 103% | IC50 (murine IL-11): 0.64 nM
